The campaign covered roughly 140,000 compounds. About 240 (0.17%) were called active. Inconclusive means that the source gave no clear call. Such entries were picked first, then a sample of the others. Calls follow the shape of the dose curve; as a rule, active = well fitted inhibition curve with a large enough effect; inconclusive = small, poorly fitted or top-dose-only effect; inactive = no such curve, though single readings can be large or run the other way. A potency beside an inconclusive call is a rough fit, not a confirmed value.
Test: Primary qHTS assay for inhibitors of alpha-synuclein gene (SNCA) expression; also: nearly all actives have a fitted effect of over 45% in size
Conditions: HEK-293 SNCA-luciferase knock-in, luminescence, 24 h; series mostly up to 57.2 µM
Potency is read from the fitted curve at half-maximal effect; tags tell the direction and shape of the fitted curve.

Potency, active:
CC(C)C[C@H](NC(=O)CNC(=O)c1cc(Cl)ccc1Cl)B(O)O 0.541 µM
O=[N+]([O-])c1cc(-c2nc(-c3ccccc3)no2)ccc1N1CCCCC1 10 µM

Potency, inconclusive:
COc1ccc(NC(=O)c2nnn(Cc3ccccc3C)c2N)c(OC)c1 2.51 µM [inhibitor, partial curve, poor fit]
Cc1nn(-c2ccc(F)cc2)c(-n2cccc2)c1C(=O)N1CCN(c2ccc(F)cc2)CC1 39.8 µM [inhibitor, single point]
CCCCOCCCNC(=O)c1c(C)noc1-c1cc(OC)cc(OC)c1 22.4 µM [inhibitor, partial curve, poor fit]
CC(C)c1ccc(CC(=O)N2CCCc3ncc(C(=O)Nc4ccccc4)cc32)cc1 35.5 µM [inhibitor, single point]
CCn1cc(CN2CCN(C(=O)c3sccc3C)CC2)ccc1=O 31.6 µM [inhibitor, single point]
CC(=O)NC[C@H]1CCN(C(=O)NCc2ccc(F)cc2)C[C@H]1N(C)C 28.2 µM [inhibitor, partial curve, poor fit]
CCC1CN(C(=O)N2CCC(C(=O)N3CCN(c4cccc(C)c4C)CC3)CC2)c2ccccc2O1 (stereo not given) 39.8 µM [inhibitor, single point]
O=C1COc2ccc(N3CCCC3)nc2CN1Cc1ccc(C(F)(F)F)cc1 35.5 µM [inhibitor, single point]
COc1ccc2c(c1)c1c(c(=O)n(-c3ccc(F)c(Cl)c3)c(=O)n1CC(=O)N1CCCC1)n2C 25.1 µM [inhibitor, single point]
Cc1noc(C)c1S(=O)(=O)N1CCC(c2noc(-c3ccncc3)n2)C1 (stereo not given) 39.8 µM [inhibitor, single point]
COc1cc(=O)n2c(c1C(=O)Nc1ccc(C(C)C)cc1)CCCC2 5.62 µM [inhibitor, single point]
COc1ccccc1N1CCN([C@H]2[C@@H]3OC[C@@H](O3)[C@@H](NCc3ccccc3O)[C@@H]2O)CC1 3.55 µM [inhibitor, single point]
Cc1ccc(S(=O)(=O)Cc2ccc(C(=O)N3CCN(c4cccc(C)c4C)CC3)o2)cc1 35.5 µM [inhibitor, partial curve, poor fit]
CCC(C)(C)C(=O)N1CCn2c(nnc2[C@@H]2C[C@@H](O)CN2Cc2ccccc2)C1 39.8 µM [inhibitor, single point]
CC(C)(C)c1ccc(S(=O)(=O)NCc2ccc3c(c2)CCN3C(=O)c2ccccc2)cc1 39.8 µM [inhibitor, single point]
Cc1cccc(N(C)c2ccc3nnc(-c4cc(C#N)ccn4)n3n2)c1 15.8 µM [inhibitor, partial curve, poor fit]
O=C(Cc1ccccc1)NCC1CN(C(=O)Cc2cccc(Oc3ccccc3)c2)CC12CN(c1ccccc1)C2 (stereo not given) 5.62 µM [inhibitor, partial curve, poor fit]
CCOc1ccc(NC(=O)c2c(Nc3ccc(OC)cc3OC)sc(C(=O)c3ccc(Cl)cc3)c2N)cc1 15.8 µM [inhibitor, partial curve, poor fit]
COc1cccc(-c2c(C(=O)NCC3CCCCC3)nc3sccn23)c1 8.91 µM [inhibitor, single point]
Cc1cc(Nc2ccc(C)c(Cl)c2)n2nc(Cc3ccccc3)nc2n1 7.08 µM [inhibitor, single point]
Cc1nc2scc(CC(=O)NCCC(C)C)n2c(=O)c1-c1cc(C)n(-c2cc(F)ccc2F)n1 4.47 µM [inhibitor, full curve, poor fit]
Cc1ccccc1NC(=O)c1ccc(CNS(=O)(=O)c2ccc3c(c2)C(C)(C)C(=O)N3C)cc1 0.178 µM [inhibitor, full curve, poor fit]
CCn1cc(CN2CCC3(CCC3NC(=O)COC)CC2)cn1 (stereo not given) 8.91 µM [inhibitor, single point]
CCc1cccc(NC(=O)c2ccc3c(c2)N(CC)C2CCCCN2C3=O)c1 (stereo not given) 8.91 µM [inhibitor, full curve, poor fit]
O=C1c2c(nc(COc3ccc(F)cc3F)n2Cc2ccccc2)NCCN1CCOc1ccccc1 39.8 µM [inhibitor, single point]

Potency, inactive:
COc1ccc(Nc2ccnc(N3CCC(N[S+](=O)([O-])c4ccc(C)cc4)CC3)n2)cc1
Cc1ccc(CN2CCC3(CC2)COc2ccccc2NC3=O)cc1
Cn1ccc(NC(=O)[C@@H]2C[C@@H](c3ccc(F)cc3)N([S+](=O)([O-])c3ccccc3)C2)n1
CNC(=O)[C@@H]1C[C@H](Oc2cccnc2)CN1C(=O)c1noc(C)c1Cc1c(C)noc1C
Cc1nn(-c2ccc(C(C)C)cc2)c(C)c1[C@@H]1C=C[C@@H](NCc2cccc(C#N)c2)C1
CNc1cc(C2CC(NS(=O)(=O)c3ccc(Cl)s3)C2)nc(N)n1 (stereo not given)
COc1ccccc1-c1ncc2c(n1)OCCN(Cc1ccc(F)cc1F)C2=O
CC(=O)N1CCC(c2nnc3n2CCNC3)CC1
O=C(c1ccn[nH]1)N1CC=C(c2cnc3cnc(-c4ccccc4)cn23)CC1
COC1C(=O)N(CC2CC2)C12CCN(C(=O)c1cccs1)CC2 (stereo not given)
COc1cc(-c2noc(-c3ccc(N4CCN(C)CC4)c([N+](=O)[O-])c3)n2)cc(OC)c1OC
Cc1noc(C)c1-c1cnc(Nc2ccc(Cl)cn2)c2c1CCO2
O=C(Nc1ccc(Oc2ccccc2)cc1)O[C@@H]1CO[C@H]2[C@@H]1OC[C@@H]2NC(=O)c1ccccn1

Reference: PubChem BioAssay AID1671194 (National Center for Advancing Translational Sciences (NCATS), 2021)
